# Test results published in PubChem BioAssay AID485294 (National Center for Advancing Translational Sciences (NCATS), 2010).
# Out of some 370,000 compounds screened, about 150 (0.041%) were called active. Inconclusive means that the source gave no clear call. Such entries were picked first, then a sample of the others. The call rests on the fitted dose curve; in most records, active means well fitted inhibition curve with a large enough effect; inconclusive means small, poorly fitted or top-dose-only effect; inactive means flat fitted curve, though single readings scatter. No potency is given beside an inconclusive call; the fits are too rough.
# Target: Beta-lactamase (Escherichia coli (strain K12)) (UniProt P00811)
# Test: qHTS Inhibitors of AmpC Beta-Lactamase (assay with detergent); further: nearly all actives have a fitted effect of over 25% in size;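 on activity change, negative = inhibition: 0% = no-compound wells and -100% = no-enzyme wells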
# Conditions: AmpC hydrolysis of nitrocefin, absorbance 480 nm, 0.01% Triton; activity change, negative = inhibition: at 114 µM (top of the series)
# Method in brief: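 AmpC (5.3 nM in the dispensed reagent) in 20 mM phosphate pH 7.0 with 0.01% (detergent screen) or 0.0001% Triton X-100 was preincubated with compounds for 15 min at room temperature. Nitrocefin was then added from an 800 uM solution, and hydrolysis was followed at 480 nm.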
# Potency means the concentration at half of the fitted maximal effect; tags describe the fitted curve by direction and shape.
# UniProt P00811, sequence (P00811 whole entry, looked up): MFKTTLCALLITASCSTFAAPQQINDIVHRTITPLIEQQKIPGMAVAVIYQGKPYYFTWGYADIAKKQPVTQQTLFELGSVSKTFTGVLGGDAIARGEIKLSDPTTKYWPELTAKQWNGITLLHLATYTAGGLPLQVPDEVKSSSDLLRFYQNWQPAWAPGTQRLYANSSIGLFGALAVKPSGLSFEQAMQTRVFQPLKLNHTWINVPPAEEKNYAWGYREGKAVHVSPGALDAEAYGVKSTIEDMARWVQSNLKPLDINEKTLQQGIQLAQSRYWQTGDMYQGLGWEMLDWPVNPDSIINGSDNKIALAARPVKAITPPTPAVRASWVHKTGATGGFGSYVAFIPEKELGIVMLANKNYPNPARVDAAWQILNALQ
SMILES,Potency,"activity change, negative = inhibition"
O=C(NCc1cccnc1)C1CCCCN1S(=O)(=O)c1ccc(F)cc1 (stereo unspecified),"inconclusive [inhibitor, full curve, poor fit]",
Cn1c(-c2ccncc2)nc2ccccc21,"inconclusive [inhibitor, partial curve, poor fit]",
Cc1[nH]c(C)c2c(=O)n(-c3ccccc3)ncc12,"inconclusive [inhibitor, full curve, poor fit]",
S=C(Nc1cccc(Cl)c1)NC1CCCCC1,,inactive: 0.17%
COc1ccc(OC)c(-c2csc(NC(=O)CSc3ccc([N+](=O)[O-])cc3)n2)c1,"inconclusive [inhibitor, full curve, poor fit]",
C=CCn1c(O)c(CN2CCOCC2)c(C)c(C#N)c1=O,"inconclusive [inhibitor, full curve, poor fit]",
CCOC(=O)c1cc(-c2ccccc2)nc2c1c(C)nn2-c1ccccn1,,inactive: -12%
Cc1c(S(=O)(=O)Nc2ccc3c(c2)OCCO3)cnn1C,"inconclusive [inhibitor, full curve, poor fit]",
CCCCN(C)CCNC(=O)c1ccc(Cn2c(=S)[nH]c3ccc(Br)cc3c2=O)cc1,"inconclusive [inhibitor, partial curve]",
O=C(COC(=O)CCc1nc2ccccc2s1)Nc1nc(-c2ccccc2)cs1,,inactive: -7.71%
CSCC(=O)N1CCC(n2nccc2NC(=O)c2ccc3c(c2)OCO3)CC1,"inconclusive [inhibitor, full curve, poor fit]",
OCCNc1nc(Nc2ccccc2)nc(Nc2ccccc2)n1,,inactive: -1.75%
COc1ccc(S(=O)(=O)N(C)CC(=O)NC2CCCC2)cc1OC,,inactive: 5.4%
CN(O)/C=N/C(=S)Nc1ccc(Cl)cc1Cl,,inactive: 0.825%
Cc1ccc(-n2nc3c(N4CCC(C(=O)NC5CCCCC5)CC4)nnc(C)c3c2C)cc1,,inactive: 22.2%
O=C(Nc1sc2c(c1C(=O)O)CCCC2)c1cccs1,"inconclusive [inhibitor, full curve, poor fit]",
CCN(CC)S(=O)(=O)c1cc(NC(=O)C2CCN(c3ncnc4sc(C)c(C)c34)CC2)ccc1Cl,,inactive: -11.3%
CCN(CC)CCNC(=O)CCc1n[nH]c(=O)c2ccccc12,"inconclusive [inhibitor, single point]",
O=C(NCCN1CCOCC1)c1cc(-c2ccc(Cl)cc2Cl)on1,,inactive: -3.12%
CCOc1ccc(N(C)S(=O)(=O)c2ccc3[nH]cc(C(=O)NCC(OC)OC)c(=O)c3c2)cc1,"inconclusive [inhibitor, full curve, poor fit]",
CC(C)c1ccc(S(=O)(=O)N2CCN(CC(O)CN3CCOCC3)CC2)cc1 (stereo unspecified),"inconclusive [inhibitor, full curve, poor fit]",
CN1CCN(c2cc(=O)n(C3CCCCC3)c(=O)[nH]2)CC1,"inconclusive [inhibitor, full curve, poor fit]",
COc1ccc(S(=O)(=O)Cc2ccc(C(=O)N3CCN(c4cccc(C)c4C)CC3)o2)cc1,"inconclusive [inhibitor, full curve, poor fit]",
CC1(C)CC(=O)C=C(C(=O)NC2CCCc3c2cnn3-c2cc(F)cc(F)c2)O1 (stereo unspecified),"inconclusive [inhibitor, full curve]",

SMILES,Potency,"activity change, negative = inhibition"
CC(/C=C/c1ccccc1)=N\NC(=O)c1cc(C)[nH]n1,,inactive: 6.07%
COc1ccc(Cl)cc1NC(=O)CN(C)C(=O)C1CC(=O)N(Cc2ccc(C)cc2)C1 (stereo unspecified),,inactive: -14.9%
Cc1ccc(CSCCNC(=O)C2CCN(S(=O)(=O)Cc3ccccc3)CC2)cc1,,inactive: -2.52%
CCC(C#CCN1CCCCC1)(CC)OCCC#N,,inactive: -10.5%
COc1ccccc1NC(=O)CSc1ccc(-c2ccccn2)nn1,inactive,
Cc1ccc(N(C)C(CNS(=O)(=O)c2ccccc2)c2ccccc2)cc1 (stereo unspecified),,inactive: 12%
C=CCc1cccc2cc(C(=O)Nc3ccccc3C(=O)O)c(=O)oc12,"inconclusive [inhibitor, full curve, poor fit]",
Cc1[nH]c2ccccc2c1/C=C(\C#N)C(=O)NC1CC1,"inconclusive [inhibitor, full curve, poor fit]",
Cc1ccc(C2=NCC(=O)Nc3ccc(Br)cc32)cc1,"inconclusive [inhibitor, full curve]",
CCc1noc(C)c1C(=O)OCC(=O)N(CCOC)c1c(N)n(Cc2ccccc2)c(=O)[nH]c1=O,"inconclusive [inhibitor, full curve]",
CCC(C(=O)O)n1nc(-c2ccccc2)c2cc(Cl)ccc21 (stereo unspecified),"inconclusive [inhibitor, full curve, poor fit]",
COc1ccc(C2=NN(C(N)=S)C(c3ccco3)C2)cc1 (stereo unspecified),,inactive: 7.69%
O=C(NCC1CCCO1)C1CCN(S(=O)(=O)c2cccc3nonc23)CC1 (stereo unspecified),"inconclusive [inhibitor, full curve]",
Cc1cccc(C(=O)Nc2cc3nn(-c4ccc(C(C)C)cc4)nc3cc2C)c1,,inactive: -1.64%
C[C@H](CO)NC(=O)[C@@H]1C[C@H]1[C@@H](NP(=O)(c1ccccc1)c1ccccc1)c1ccccc1,"inconclusive [inhibitor, partial curve, poor fit]",
CCOC(=O)N1CCC(NC(=O)C2CCN(S(=O)(=O)N3CCCC3)CC2)CC1,"inconclusive [inhibitor, full curve, poor fit]",
Cc1csc(NC(=O)CSc2nnnn2C)n1,,inactive: -6.62%
CCOc1ccccc1C(=O)N/N=C/c1c[nH]c2ccccc12,,inactive: 0.829%
Cc1ccc(C)c(OCC(=O)Nc2ccc(S(=O)(=O)N3CCN(C)CC3)cc2)c1,"inconclusive [inhibitor, single point]",
Cc1ccc(C(OC(=O)c2ccco2)C(=O)NC2CCCC2)cc1 (stereo unspecified),"inconclusive [inhibitor, single point]",
Cc1cc(Cl)cc(C)c1OCC(=O)N1CCN(c2ncccn2)CC1,"inconclusive [inhibitor, full curve, poor fit]",
O=C(C1CCC(Cn2c(=O)c3sccc3n(Cc3cccc(F)c3)c2=O)CC1)N1CCOCC1 (stereo unspecified),,inactive: 1.96%
Cc1ccc(NS(=O)(=O)c2ccc(OCC(=O)NCc3ccco3)cc2)cc1,"inconclusive [inhibitor, full curve, poor fit]",
CC1CCN(C(=O)Cn2nnc(-c3ccc(C(C)C)cc3)n2)CC1,"inconclusive [inhibitor, partial curve, poor fit]",

SMILES,Potency,"activity change, negative = inhibition"
Cc1ccccc1NC(=O)CNc1ccccc1N1CCCCC1,"inconclusive [inhibitor, partial curve, poor fit]",
Cc1cc(C)n2nc(C(=O)OCC(=O)N(C)CC(=O)Nc3ccc(F)cc3)nc2n1,"inconclusive [inhibitor, single point]",
CC(C)CN(C(=O)CC1CCCC1)c1c(N)n(Cc2ccccc2)c(=O)[nH]c1=O,,inactive: -7.23%
Cc1c(Cl)cccc1NC(=S)/C(=C(\[O-])c1ccc(Cl)s1)[n+]1ccccc1,"inconclusive [inhibitor, full curve]",
NC(=O)C1CCN(c2nc(-c3ccccc3)nc3c2oc2ccccc23)CC1,,inactive: -0.0928%
CCOc1cc(CNCCCN2CCOCC2)cc(Br)c1OCC(=O)Nc1cccc(C(F)(F)F)c1,,inactive: 2.98%
O=C(CN1CCN(c2ccccc2F)CC1)N1CCc2ccccc21,,inactive: 0.959%
O=C(Nc1cccc(Cl)c1Cl)Nn1cnnc1,"inconclusive [inhibitor, full curve, poor fit]",
CC(Sc1nc2ccccc2s1)C(=O)N1CCOCC1 (stereo unspecified),"inconclusive [inhibitor, full curve, poor fit]",
COc1ccc(C(=O)Nc2nnc(S(=O)(=O)N(C)Cc3ccccc3)s2)cc1,"inconclusive [inhibitor, full curve, poor fit]",
COc1ccc(OC)c(C(C)NC(=S)NC2CCCCC2)c1 (stereo unspecified),,inactive: -7.17%
O=C(CSc1cccc2cccnc12)OCC(=O)c1ccccc1,"inconclusive [inhibitor, full curve]",
CCNC(=O)N1c2ccc(OC)cc2C(C)=CC1(C)C,"inconclusive [inhibitor, partial curve]",
CC1CC(C)(C)N(C(=O)CN2C(=O)c3ccccc3C2=O)c2ccccc21 (stereo unspecified),"inconclusive [inhibitor, single point]",
COc1ccc(-c2[nH]c3c(c2-c2c(-n4cccc4)n(C)c(=O)[nH]c2=O)c(=O)[nH]c(=O)n3C)cc1F,,inactive: 12.5%
CCCCn1c(N)c(N(CC(C)C)C(=O)CN2C(=O)c3ccccc3C2=O)c(=O)[nH]c1=O,"inconclusive [inhibitor, partial curve, poor fit]",
COc1ccc(-n2nnc(-c3nsc(NC(=O)c4cccc(C)c4)n3)c2C)cc1OC,,inactive: 2.46%
CCOC(=O)c1ccc(-n2c(CN3CCC(O)CC3)nc3ccc([N+](=O)[O-])cc3c2=O)cc1,,inactive: 1.66%
COCCCNc1nc(CC(C)C)nc2c1nnn2Cc1ccccc1,"inconclusive [inhibitor, full curve, poor fit]",
CC(OC(=O)c1ccc(S(=O)(=O)NCc2ccco2)cc1)C(=O)Nc1ccc(Cl)cn1 (stereo unspecified),,inactive: 4.59%
c1ccc(-c2cnc(CN3CCN(c4ccccc4)CC3)o2)cc1,"inconclusive [inhibitor, partial curve]",
O=C(CSc1nc2[nH]c(=O)cc(O)c2s1)Nc1ccc(Cl)c(C(F)(F)F)c1,,inactive: -0.0499%
COc1cccc(NC(=O)/C(C#N)=C/c2c(C)n(Cc3ccccc3)c3ccccc23)c1,,inactive: 14.5%
